Source: PubChem BioAssay AID761 (NMMLSC, 2007)
Hit rate of the full screen: of about 190,000 compounds, about 400 (0.21%) were called active.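 How the source made its calls: active means percent activity GTP binding at least 20 points away from the 100% baseline, either down as inhibitor or up as activator; inconclusive means compound flagged as likely green fluorescent from well-wide comparison; inactive means the rest.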 Inconclusive means that the source gave no clear call.

Target: Cell division control protein 42 homolog (Homo sapiens) (UniProt P60953)
UniProt P60953, sequence (P60953 whole entry, looked up): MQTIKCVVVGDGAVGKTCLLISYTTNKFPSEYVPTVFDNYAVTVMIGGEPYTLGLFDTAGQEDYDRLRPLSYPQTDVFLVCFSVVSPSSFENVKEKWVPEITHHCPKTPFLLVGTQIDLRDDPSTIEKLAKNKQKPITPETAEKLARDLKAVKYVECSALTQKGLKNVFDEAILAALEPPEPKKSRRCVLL
Assay: wildtype Cdc42 fluorescent GTP binding changes, either direction – biochemical, multiplex bead flow cytometry, Bodipy-GTP, primary screen (AID 761);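 further: median bead fluorescence of bound Bodipy-FL-GTP at 100 nM; 0% = excess unlabeled GTP control and 100% = no compound control; below 100% means less GTP binding so inhibitor and above means activator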
Details: GST-Cdc42 beads, at 10 µM, actives lie on both sides

SMILES | percent activity (GTP binding)
COc1cc(NS(=O)(=O)c2ccc(NC(=S)NC(=O)c3sc4ccccc4c3Cl)cc2)nc(OC)n1 | inconclusive: 83%
